Laboratory results: the supplement of paper PMC9334596
“And” between values parts separate entries of the source, which are not always exact repeats. Equal entries are not always repeated. The full ranking holds about 5,300 compounds; the median of “PER2::LUC luminescence relative to vehicle control” is about 0.96, and the highest 2% start at about 1.3. Some of the results follow.

System: mPer2Luc MEF
Test: PER2::LUC luminescence relative to vehicle control (fold of vehicle); higher = higher PER2::LUC reporter signal
Details: 10 µM
Outline: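 Mouse embryonic fibroblasts carrying the mPer2Luc reporter were seeded at ~3000 cells per well in 384-well plates, 48 h before compounds from commercial libraries were added at 10 μM. Cells were grown in DMEM with 10% FBS at 37 °C and 5% CO2. Luminescence was read with the ONE-Glo luciferase assay system 24 h and 30 h after treatment, followed by an alamarBlue viability assay. The value is PER2::LUC luminescence as fold of vehicle control.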

Row | SMILES | PER2::LUC luminescence (time after treatment 24 h) | PER2::LUC luminescence (time after treatment 30 h)
1 | Cc1cc(-c2ccc(CC(=O)Nc3ccc(-c4cccnc4)cc3)cc2)ccn1 | 0.824 | 0.839
2 | CN1CCN(c2c(F)cc3c(=O)c(C(=O)O)cn4c3c2SCC4)CC1 | 0.874 | 0.935
3 | COc1ccc(C2CC(c3ccccc3)=NN2c2ccc(S(N)(=O)=O)cc2)cc1 (stereo not given) | 0.907 | 0.9
4 | CC(=O)N1CCN(C)CC1 | 0.932 | 1.01
5 | CNCc1cc(-c2ccccc2F)n(S(=O)(=O)c2cccnc2)c1 | 0.922 | 0.955
6 | Cn1c2ncnc-2c(O)n(C)c1=O | 1.14 | 1.18
7 | Cc1ccccc1C(OCCN(C)C)c1ccccc1 (stereo not given) | 0.97 and 0.768 | 0.937 and 0.673
8 | NCCNS(=O)(=O)c1cccc2c(Cl)cccc12 | 1.15 | 0.684
9 | Cc1nn(C)c2c1C(c1ccc(C(F)(F)F)cc1)C(C#N)=C(N)O2 (stereo not given) | 1.09 | 0.946
10 | CC(C)NCC(O)c1ccc(O)c(O)c1 (single isomer, unassigned; (-)) | 0.989 | 0.994
11 | O=C1C(O)=C([C@H]2CC[C@H](c3ccc(Cl)cc3)CC2)C(=O)c2ccccc21 | 0.783 | 0.946
12 | O=C(O)CNC(=O)c1nc(Cl)c2ccccc2c1O | 1.01 | 0.941
13 | COc1cc(Nc2nc3c(s2)CCCC3c2ccc(F)cc2)ccc1-n1cnc(C)c1 (stereo not given) | 1.05 | 1.02
14 | C[C@@H]1CC[C@@]23CCC4(C)[C@@](C=CC5[C@@]6(C)CCC(=O)C(C)(C)C6CC[C@]54C)(OC2=O)C3[C@H]1C (stereo not given in full) | 1.13 | 1.03
15 | NC(=O)NC1NC(=O)NC1=O (stereo not given) | 1.22 | 1.09
16 | CCOCc1nc2c(N)nc3ccccc3c2n1CC(C)(C)O | 0.909 | 0.877
17 | CN(C)CCOC(c1ccc(Cl)cc1)c1ccccn1 (stereo not given) | 0.834 | 0.853
18 | O=C1CCc2ccc(OCCCCN3CCN(c4cccc(Cl)c4Cl)CC3)cc2N1 | 0.834 | 0.887
19 | COc1c2ccoc2cc2oc(=O)ccc12 | 0.819 | 0.811
20 | CCCCCCCCCCCC1=C(O)C(=O)C=C(O)C1=O | 1.01 | 0.88
21 | NCCCC(N)(C(=O)O)C(F)F (stereo not given) | 1.07 | 0.949
22 | CCC(Sc1nnc2c(n1)[nH]c1ccccc12)C(=O)N1c2ccccc2Sc2ccccc21 (stereo not given) | 0.975 | 1.07
23 | CC1(C)CC[C@]2(C(=O)O)CC[C@]3(C)C(=CCC4[C@@]5(C)CC[C@@H](O)C(C)(C)C5CC[C@]43C)C2C1 (stereo not given in full) | 0.996 | 0.939
24 | C=C[C@@H]1C[C@]1(NC(=O)[C@@H]1C[C@@H]2CN1C(=O)[C@H](C(C)(C)C)NC(=O)O[C@@H]1C[C@H]1CCCCCc1nc3ccc(OC)cc3nc1O2)C(=O)NS(=O)(=O)C1CC1 | 1.23 | 1.33
25 | CCN(CC)CCOc1ccc(C(=C(Cl)c2ccccc2)c2ccccc2)cc1 | 0.934 and 0.704 | 1.73 and 0.773
26 | CC(C)=CCC/C(C)=C/CC/C(C)=C/CSc1ccccc1C(=O)O | 1.13 | 1.1
27 | COc1ccc2c(c1)CC[C@@H]1[C@@H]2CC[C@]2(C)[C@@H](NCCCCCCN3C(=O)CCC3=O)CC[C@@H]12 | 0.769 | 0.668
28 | CCCCCOC(=O)Nc1nc(=O)n([C@@H]2O[C@H](C)[C@@H](O)[C@H]2O)cc1F | 1.06 | 0.877

Row | SMILES | PER2::LUC luminescence (time after treatment 24 h) | PER2::LUC luminescence (time after treatment 30 h)
29 | CCCCNc1ccc(C(=O)OCCN(C)C)cc1 | 1.04 | 0.965
30 | COc1ccc(NC(=O)c2ccc(-c3ccc(-c4noc(C)n4)cc3C)cc2)cc1N1CCN(C)CC1 | 0.555 | 0.523
31 | CN1CCOC(c2ccccc2)c2ccccc2C1 (stereo not given) | 1.02 and 0.878 | 1.02 and 0.749
32 | N=C(N)NCCCCN | 0.91 | 0.801
33 | COc1ccc(N2CCOCC2)c2sc(NC(=O)N3CCC(C)(O)CC3)nc12 | 0.925 | 0.991
34 | C[C@H](CSC(=O)c1ccccc1)C(=O)N1C[C@@H](Sc2ccccc2)C[C@H]1C(=O)O | 1.03 | 0.959
35 | CCc1cc(-c2n[nH]c(C)c2-c2ccc3c(c2)OCCO3)c(O)cc1O | 1.11 | 1.12
36 | COc1cc2ncnc(Oc3ccc(CC(=O)Nc4cnn(C(C)C)c4)cc3)c2cc1OC | 0.767 | 0.639
37 | CC(C)NC[C@H](O)COc1cccc2[nH]ccc12 | 1.06 and 0.903 | 0.838 and 0.849
38 | CCc1ccc2c(O)c3c(cc2c1C(=O)OC)C(=O)c1c(O)ccc(O)c1C3=O | 0.886 | 0.948
39 | O=C(Cc1ccccc1)Nc1nc2ccc(Cl)cc2c2nc(-c3ccco3)nn12 | 0.998 | 0.984
40 | O=C(O)COCCN1CCN([C@H](c2ccccc2)c2ccc(Cl)cc2)CC1 | 0.971 and 0.778 | 0.903 and 0.84
41 | Cc1cc(-c2ncc(CC(=O)Nc3ccc(-c4cnccn4)cn3)cc2C)ccn1 | 0.781 | 0.903
42 | Cc1cnc(C(=O)NCCc2ccc(S(=O)(=O)NC(=O)NC3CCCCC3)cc2)cn1 | 0.906 | 1.14
43 | COc1ccc2c(O[C@@H]3C[C@H]4C(=O)N[C@]5(C(=O)NS(=O)(=O)C6CC6)C[C@H]5/C=C\CCCCN(C)C(=O)[C@@H]4C3)cc(-c3nc(C(C)C)cs3)nc2c1C | 1.04 | 1.02
44 | FC(F)(F)c1ccc(CNc2ccc(Cc3c[nH]c4ncc(Cl)cc34)cn2)cc1 | 0.83 | 0.83
45 | O=C1[C@H](CC[C@H](O)c2ccc(F)cc2)[C@@H](c2ccc(O)cc2)N1c1ccc(F)cc1 | 0.797 | 0.929
46 | CC(=O)O[C@H]1C[C@@H](OC(C)=O)C(C)(C)[C@@H]2C[C@@H](OC(C)=O)[C@@]3(C)C4=CC(=O)O[C@@H](c5ccoc5)[C@]4(C)CC[C@@H]3[C@@]12C | 0.879 | 0.86
47 | c1cc(-c2cnn3cc(-c4ccc(OCCN5CCCCC5)cc4)cnc23)ccn1 | 0.506 and 0.484 | 0.616 and 0.593
48 | O=S(=O)(O)c1cc(I)c(O)c2ncccc12 | 0.945 | 1.18
49 | N#Cc1nccc(Oc2cccc(-c3ccc(CN)cc3)c2)n1 | 0.994 | 1.14
50 | COc1ccccc1N1CCN(CCCCNC(=O)c2ccc3ccccc3c2)CC1 | 0.883 | 0.811
51 | Nc1ncnc2c1C(=O)N(c1ccc([C@H]3CC[C@H](CC(=O)O)CC3)cc1)CCO2 | 1.07 | 0.74
52 | CCC1NC(=O)c2cc(S(N)(=O)=O)c(Cl)cc2N1 (stereo not given) | 0.686 | 0.906
53 | CC(O)(P(=O)(O)O)P(=O)(O)O | 0.929 and 0.971 and 0.927 | 1.04 and 0.95 and 0.987
54 | CC(COc1ccccc1Cc1ccccc1)N1CCCCC1 (stereo not given) | 0.794 | 0.87
55 | COC(C)(C)CCCC(C)C/C=C/C(C)=C/C(=O)O (stereo not given) | 1.1 | 1.13
